Source: article PMC6078952
No constants are given. Whether binding was seen depends on the method and setting.

Chains of the proteins cited; added tags and fusions are not shown. Lines headed by an entry give the natural chain unless they say otherwise; changes in a name come on top. A line that says so, or that is headed by a name, gives the form on record, which may keep a tag or linker. Residues count along the entry.
UniProt P20908: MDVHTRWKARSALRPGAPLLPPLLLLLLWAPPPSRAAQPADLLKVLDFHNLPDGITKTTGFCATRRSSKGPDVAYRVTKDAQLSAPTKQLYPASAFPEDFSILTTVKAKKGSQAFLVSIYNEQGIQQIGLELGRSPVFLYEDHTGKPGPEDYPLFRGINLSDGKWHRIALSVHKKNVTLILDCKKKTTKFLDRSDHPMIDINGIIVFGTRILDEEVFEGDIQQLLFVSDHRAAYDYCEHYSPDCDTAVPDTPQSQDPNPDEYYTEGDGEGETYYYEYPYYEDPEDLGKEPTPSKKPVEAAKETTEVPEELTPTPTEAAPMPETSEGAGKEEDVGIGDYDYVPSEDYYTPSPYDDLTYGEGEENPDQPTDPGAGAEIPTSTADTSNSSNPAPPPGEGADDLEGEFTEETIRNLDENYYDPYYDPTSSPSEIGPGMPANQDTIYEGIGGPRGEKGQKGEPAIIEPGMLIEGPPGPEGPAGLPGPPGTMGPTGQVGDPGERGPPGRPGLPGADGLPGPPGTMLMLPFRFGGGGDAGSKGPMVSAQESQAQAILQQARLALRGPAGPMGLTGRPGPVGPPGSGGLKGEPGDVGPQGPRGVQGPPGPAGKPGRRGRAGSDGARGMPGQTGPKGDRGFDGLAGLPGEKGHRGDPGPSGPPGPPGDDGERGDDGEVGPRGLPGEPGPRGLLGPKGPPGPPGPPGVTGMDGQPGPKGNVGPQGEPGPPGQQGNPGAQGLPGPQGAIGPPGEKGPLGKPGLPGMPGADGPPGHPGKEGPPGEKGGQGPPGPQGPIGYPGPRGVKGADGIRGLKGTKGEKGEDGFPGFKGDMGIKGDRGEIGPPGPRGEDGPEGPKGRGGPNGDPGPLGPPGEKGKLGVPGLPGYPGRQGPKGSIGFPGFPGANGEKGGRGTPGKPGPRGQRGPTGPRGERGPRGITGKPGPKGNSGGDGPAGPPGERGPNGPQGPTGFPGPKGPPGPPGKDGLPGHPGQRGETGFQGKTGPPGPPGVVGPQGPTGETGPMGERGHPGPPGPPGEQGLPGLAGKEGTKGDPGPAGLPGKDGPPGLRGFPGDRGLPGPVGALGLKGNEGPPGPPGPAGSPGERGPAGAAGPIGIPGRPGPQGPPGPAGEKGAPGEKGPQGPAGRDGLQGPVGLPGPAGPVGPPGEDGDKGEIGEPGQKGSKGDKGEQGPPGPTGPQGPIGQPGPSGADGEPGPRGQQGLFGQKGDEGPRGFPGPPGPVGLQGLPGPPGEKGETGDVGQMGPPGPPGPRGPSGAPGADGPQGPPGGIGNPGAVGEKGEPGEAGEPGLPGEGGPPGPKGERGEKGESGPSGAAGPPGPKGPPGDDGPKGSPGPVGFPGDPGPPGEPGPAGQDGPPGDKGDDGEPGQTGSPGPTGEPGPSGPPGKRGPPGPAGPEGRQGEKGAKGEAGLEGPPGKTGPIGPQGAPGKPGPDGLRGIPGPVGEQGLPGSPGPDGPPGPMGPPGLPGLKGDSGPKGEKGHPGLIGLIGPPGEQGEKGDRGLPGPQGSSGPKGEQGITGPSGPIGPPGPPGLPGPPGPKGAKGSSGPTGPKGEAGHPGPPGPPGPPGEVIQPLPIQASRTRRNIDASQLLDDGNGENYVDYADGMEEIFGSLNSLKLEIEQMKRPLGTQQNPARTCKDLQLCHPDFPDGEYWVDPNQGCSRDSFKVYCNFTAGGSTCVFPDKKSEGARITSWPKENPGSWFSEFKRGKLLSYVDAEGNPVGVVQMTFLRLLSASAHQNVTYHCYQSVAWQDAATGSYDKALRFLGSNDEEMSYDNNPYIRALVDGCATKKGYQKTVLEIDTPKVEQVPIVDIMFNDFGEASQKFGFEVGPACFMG
UniProt P12109: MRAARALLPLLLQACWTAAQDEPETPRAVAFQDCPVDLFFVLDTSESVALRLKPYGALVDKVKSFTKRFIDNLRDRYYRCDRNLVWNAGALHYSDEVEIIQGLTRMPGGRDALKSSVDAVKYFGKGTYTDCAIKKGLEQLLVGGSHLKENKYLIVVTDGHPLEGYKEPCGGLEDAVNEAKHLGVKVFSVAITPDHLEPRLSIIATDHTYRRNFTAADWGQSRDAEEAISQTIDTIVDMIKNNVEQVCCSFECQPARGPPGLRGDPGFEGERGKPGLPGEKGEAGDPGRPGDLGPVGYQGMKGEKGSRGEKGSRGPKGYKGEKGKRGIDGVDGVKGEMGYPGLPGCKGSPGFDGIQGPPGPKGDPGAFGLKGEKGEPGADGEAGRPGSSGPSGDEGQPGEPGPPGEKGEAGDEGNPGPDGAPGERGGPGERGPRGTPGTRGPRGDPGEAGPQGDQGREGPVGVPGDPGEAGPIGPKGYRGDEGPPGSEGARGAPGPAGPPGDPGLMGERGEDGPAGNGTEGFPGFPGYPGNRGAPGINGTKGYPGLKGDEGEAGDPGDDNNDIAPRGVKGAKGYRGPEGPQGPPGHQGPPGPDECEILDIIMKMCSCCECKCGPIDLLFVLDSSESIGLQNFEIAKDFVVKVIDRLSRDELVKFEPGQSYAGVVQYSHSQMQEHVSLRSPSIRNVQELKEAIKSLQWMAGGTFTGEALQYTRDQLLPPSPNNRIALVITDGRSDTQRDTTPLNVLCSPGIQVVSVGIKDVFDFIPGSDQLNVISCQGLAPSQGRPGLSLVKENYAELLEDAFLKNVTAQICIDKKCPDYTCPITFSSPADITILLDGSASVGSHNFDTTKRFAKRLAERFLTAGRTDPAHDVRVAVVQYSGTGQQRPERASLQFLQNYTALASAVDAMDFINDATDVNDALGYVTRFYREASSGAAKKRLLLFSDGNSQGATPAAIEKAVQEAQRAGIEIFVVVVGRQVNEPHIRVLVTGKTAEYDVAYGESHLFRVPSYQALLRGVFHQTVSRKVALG
UniProt P06756: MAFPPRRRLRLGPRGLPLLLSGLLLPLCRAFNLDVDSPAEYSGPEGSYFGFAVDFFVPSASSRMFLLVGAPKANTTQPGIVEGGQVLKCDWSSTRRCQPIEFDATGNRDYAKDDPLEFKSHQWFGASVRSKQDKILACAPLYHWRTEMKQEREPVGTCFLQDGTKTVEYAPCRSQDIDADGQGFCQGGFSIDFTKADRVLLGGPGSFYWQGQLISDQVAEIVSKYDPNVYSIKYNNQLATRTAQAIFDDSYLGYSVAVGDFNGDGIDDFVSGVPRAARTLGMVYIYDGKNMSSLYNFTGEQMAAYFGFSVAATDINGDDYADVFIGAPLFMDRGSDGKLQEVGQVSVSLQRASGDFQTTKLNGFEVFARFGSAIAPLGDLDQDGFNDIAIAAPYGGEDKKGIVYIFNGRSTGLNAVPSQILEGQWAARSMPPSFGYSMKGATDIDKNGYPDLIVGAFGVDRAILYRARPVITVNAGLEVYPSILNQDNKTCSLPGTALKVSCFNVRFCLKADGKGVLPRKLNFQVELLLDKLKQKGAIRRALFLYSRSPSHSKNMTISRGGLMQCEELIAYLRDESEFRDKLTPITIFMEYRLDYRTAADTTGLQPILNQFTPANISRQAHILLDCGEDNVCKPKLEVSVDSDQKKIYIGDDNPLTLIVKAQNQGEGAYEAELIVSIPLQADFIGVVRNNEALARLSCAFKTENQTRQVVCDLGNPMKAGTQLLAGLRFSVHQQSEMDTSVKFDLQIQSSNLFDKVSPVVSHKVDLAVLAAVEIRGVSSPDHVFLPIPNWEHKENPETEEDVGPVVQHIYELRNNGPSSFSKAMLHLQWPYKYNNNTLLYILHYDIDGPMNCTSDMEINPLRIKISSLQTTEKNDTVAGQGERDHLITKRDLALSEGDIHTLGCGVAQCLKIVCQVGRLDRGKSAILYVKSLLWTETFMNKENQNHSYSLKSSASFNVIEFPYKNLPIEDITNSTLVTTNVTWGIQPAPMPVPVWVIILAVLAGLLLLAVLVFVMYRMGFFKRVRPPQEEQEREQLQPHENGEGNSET
UniProt P35968, residues 20-764: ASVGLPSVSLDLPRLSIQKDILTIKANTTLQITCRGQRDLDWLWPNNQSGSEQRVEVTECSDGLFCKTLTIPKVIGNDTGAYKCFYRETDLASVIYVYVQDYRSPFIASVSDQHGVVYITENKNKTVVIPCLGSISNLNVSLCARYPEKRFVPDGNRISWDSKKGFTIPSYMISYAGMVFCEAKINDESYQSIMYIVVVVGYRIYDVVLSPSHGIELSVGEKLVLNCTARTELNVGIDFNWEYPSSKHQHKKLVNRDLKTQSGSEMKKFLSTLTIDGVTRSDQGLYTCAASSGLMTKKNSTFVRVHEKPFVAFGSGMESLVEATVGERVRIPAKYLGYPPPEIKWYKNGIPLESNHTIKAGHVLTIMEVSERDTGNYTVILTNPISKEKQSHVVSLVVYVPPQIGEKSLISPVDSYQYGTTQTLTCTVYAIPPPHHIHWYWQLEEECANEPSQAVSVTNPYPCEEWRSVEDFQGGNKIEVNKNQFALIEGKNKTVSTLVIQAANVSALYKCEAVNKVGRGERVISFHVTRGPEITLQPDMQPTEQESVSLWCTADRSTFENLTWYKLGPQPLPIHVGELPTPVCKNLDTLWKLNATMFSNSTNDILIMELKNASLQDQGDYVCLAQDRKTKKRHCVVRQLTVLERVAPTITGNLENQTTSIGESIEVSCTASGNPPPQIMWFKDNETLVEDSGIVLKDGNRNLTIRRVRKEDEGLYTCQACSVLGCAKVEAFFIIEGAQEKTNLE
UniProt Q86Y22, residues 111-540: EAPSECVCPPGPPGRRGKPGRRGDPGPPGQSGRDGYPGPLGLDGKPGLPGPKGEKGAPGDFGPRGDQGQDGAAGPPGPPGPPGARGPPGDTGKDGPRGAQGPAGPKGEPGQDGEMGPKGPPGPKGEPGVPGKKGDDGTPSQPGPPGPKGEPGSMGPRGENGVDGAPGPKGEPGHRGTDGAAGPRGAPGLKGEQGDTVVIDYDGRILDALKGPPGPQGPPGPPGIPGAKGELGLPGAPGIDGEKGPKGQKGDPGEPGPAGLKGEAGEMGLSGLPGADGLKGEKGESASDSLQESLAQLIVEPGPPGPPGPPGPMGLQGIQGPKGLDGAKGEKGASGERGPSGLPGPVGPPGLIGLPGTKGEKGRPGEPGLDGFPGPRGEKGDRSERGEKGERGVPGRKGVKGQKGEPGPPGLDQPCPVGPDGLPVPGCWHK
UniProt P39060, residues 1572-1754: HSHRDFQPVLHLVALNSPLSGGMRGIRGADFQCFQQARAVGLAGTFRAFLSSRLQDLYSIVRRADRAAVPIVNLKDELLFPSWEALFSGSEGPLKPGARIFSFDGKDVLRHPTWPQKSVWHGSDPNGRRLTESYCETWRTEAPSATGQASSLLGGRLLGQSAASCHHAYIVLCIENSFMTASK
UniProt P61769: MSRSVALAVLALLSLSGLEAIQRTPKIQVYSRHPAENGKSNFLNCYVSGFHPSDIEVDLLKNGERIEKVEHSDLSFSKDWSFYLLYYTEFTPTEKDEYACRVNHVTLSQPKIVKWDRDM
UniProt Q5TAT6, residues 62-717: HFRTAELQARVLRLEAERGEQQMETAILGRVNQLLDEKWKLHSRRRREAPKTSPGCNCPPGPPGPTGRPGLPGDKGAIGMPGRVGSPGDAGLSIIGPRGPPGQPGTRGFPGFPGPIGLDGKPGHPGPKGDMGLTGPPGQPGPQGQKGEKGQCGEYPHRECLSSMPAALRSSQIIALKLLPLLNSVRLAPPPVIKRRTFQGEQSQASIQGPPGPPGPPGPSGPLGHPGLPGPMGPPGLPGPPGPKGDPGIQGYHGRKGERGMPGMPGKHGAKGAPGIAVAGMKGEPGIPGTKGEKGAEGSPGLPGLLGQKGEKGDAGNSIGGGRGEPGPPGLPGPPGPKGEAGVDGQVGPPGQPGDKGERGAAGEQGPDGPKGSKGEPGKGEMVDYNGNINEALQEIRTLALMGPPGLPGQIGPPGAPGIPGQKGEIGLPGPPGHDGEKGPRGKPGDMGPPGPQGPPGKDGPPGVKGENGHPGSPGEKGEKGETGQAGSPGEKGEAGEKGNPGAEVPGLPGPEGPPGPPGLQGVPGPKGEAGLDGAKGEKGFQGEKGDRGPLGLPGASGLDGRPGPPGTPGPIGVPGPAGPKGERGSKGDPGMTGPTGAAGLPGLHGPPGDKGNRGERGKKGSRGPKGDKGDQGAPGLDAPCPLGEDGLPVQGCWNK
Lysyl oxidase propeptide (LOX-PP) (Pro24Leu) (P28300, form named): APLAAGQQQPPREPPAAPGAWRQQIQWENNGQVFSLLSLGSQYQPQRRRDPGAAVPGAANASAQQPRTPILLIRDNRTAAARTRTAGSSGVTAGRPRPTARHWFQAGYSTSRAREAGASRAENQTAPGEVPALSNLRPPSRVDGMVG

Tests used:
Assay in all cases: SPR; SPR imaging (SPRi, Biacore Flexchip): partners spotted in triplicate on a bare gold chip at 0.06 to 1 mg/ml; purified LOX-PP injected at 2 µM and recirculated for 20 min; PBS with 0.05% Tween 20, 25 °C; both purified
[1] = target: T1, Extracellular matrix protein 1 (ECM1) (UniProt Q16610)
T1 sequence: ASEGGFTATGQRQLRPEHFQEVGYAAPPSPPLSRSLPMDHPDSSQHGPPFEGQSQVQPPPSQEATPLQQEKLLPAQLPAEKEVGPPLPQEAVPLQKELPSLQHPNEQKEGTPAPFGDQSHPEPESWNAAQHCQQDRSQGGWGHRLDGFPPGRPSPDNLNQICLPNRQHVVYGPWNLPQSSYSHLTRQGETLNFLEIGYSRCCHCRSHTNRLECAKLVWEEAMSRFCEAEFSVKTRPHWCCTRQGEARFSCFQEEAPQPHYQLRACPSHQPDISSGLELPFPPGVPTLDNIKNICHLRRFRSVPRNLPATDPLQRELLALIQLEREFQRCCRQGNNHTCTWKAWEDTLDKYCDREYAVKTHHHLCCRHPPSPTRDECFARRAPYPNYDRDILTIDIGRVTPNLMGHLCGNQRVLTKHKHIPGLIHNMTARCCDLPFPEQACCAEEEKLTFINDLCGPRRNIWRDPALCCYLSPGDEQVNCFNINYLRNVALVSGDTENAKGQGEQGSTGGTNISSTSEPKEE

Collagen V = Collagen V (UniProt P20908)
[2] = target: T2, Leukocyte-associated immunoglobulin-like receptor-1 (LAIR1) (UniProt Q6GTX8)
T2 sequence: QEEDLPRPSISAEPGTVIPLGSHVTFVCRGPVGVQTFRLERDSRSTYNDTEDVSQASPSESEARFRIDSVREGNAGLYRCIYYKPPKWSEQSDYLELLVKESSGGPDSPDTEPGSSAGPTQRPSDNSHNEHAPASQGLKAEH

Collagen VI = Collagen VI (UniProt P12109)
Integrin αvβ5 ectodomain = Integrin αvβ5 ectodomain (UniProt P06756)
Collagen XVII ectodomain = Collagen XVII ectodomain (UniProt Q9UMD9)
[3] = target: Vascular endothelial growth factor receptor-2 (VEGFR-2) (UniProt P35968)
[4] = target: Collagen XXIII ectodomain (UniProt Q86Y22)
[5] = target: Endostatin (expressed in Pichia pastoris) (UniProt P39060)
β-2 microglobulin = β-2 microglobulin (UniProt P61769)
[6] = target: T3, Angiopoietin-like protein 4 (AngPTL-4), mutant Lys163Ala, Arg164Ala (UniProt Q9BY76)
T3 sequence: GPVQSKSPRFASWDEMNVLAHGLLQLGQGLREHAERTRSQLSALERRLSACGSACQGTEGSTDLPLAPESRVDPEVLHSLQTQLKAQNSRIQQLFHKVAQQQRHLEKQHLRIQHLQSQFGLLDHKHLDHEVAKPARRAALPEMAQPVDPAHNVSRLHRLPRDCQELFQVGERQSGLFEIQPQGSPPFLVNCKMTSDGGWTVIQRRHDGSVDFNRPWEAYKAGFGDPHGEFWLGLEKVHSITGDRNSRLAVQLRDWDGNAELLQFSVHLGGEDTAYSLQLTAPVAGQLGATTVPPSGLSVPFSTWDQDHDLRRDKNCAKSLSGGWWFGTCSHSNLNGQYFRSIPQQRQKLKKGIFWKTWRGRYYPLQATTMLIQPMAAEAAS

Collagen XIII ectodomain = Collagen XIII ectodomain (UniProt Q5TAT6)
[7] = target: Endostatin (expressed in HEK293 cells) (UniProt P39060)

- binding [1]: no binding (tested: 2 µM)
- binding (Collagen V): no binding (tested: 2 µM)
- binding [2]: no binding (tested: 2 µM)
- binding (Collagen VI): no binding (tested: 2 µM)
- binding (Integrin αvβ5 ectodomain): no binding (tested: 2 µM)
- binding (Collagen XVII ectodomain): no binding (tested: 2 µM)
- binding [3]: no binding (tested: 2 µM)
- binding [4]: no binding (tested: 2 µM)
- binding [5]: no binding (tested: 2 µM)
- binding (β-2 microglobulin): no binding (tested: 2 µM)
- binding [6]: no binding (tested: 2 µM)
- binding (Collagen XIII ectodomain): no binding (tested: 2 µM)
- binding [7]: no binding (tested: 2 µM)
Substance: Lysyl oxidase propeptide (LOX-PP) (Pro24Leu) (from UniProt P28300 22-168) (domain or fragment)
